PMC4336329 (PLoS ONE, 2015)
The campaign covered roughly 310,000 compounds. About 2,200 (0.71%) showed an effect of 50% or more. The effect is printed as a negative number. This is one part of the list.

molecular target: human ether-à-go-go-related gene (hERG) potassium channel (human, UniProt Q12809); experiment: primary screen, population patch clamp on CHO cells stably expressing hERG
Sequence (Q12809 whole entry, looked up): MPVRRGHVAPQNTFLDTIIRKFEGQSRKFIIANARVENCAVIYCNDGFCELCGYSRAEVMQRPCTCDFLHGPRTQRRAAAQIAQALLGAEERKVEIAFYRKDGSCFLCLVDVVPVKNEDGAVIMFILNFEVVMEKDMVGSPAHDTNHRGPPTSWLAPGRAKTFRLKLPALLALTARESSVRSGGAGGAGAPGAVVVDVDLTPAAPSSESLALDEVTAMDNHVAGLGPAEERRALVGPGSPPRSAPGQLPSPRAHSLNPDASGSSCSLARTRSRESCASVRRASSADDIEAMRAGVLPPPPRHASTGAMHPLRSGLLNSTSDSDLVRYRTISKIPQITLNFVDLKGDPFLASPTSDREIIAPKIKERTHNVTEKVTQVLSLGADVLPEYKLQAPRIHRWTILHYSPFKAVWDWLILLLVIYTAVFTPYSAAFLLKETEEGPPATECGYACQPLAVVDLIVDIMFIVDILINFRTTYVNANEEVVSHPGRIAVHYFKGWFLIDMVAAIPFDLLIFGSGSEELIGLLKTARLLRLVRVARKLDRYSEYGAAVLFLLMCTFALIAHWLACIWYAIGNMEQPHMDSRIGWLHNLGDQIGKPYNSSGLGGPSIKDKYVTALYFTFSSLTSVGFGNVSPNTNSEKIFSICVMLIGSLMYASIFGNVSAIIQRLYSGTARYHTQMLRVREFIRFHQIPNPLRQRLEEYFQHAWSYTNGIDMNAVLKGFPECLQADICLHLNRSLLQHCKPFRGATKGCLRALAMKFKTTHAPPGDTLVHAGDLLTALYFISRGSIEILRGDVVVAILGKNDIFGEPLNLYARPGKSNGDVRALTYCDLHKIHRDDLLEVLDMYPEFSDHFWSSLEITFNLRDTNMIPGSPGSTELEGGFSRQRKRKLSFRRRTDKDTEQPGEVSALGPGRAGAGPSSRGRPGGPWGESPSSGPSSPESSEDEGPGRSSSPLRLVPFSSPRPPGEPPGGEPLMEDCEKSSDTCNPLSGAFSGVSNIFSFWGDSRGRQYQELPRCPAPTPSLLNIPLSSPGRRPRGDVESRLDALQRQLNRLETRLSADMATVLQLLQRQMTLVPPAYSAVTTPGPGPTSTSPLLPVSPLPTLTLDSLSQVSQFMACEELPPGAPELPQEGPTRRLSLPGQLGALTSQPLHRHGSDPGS

Structure (SMILES)	hERG current change (%, negative = inhibition) at 1uM [%]
COc1cc(CN2C(=O)C(NC(=O)c3ccco3)(C(F)(F)F)C3=C2CC(C)(C)CC3=O)cc(OC)c1 (centres unmarked)	7.6
COc1cc(C(=O)NCCC(c2ccccc2)c2ccccc2)cc(OC)c1OC	8.82
O=C(CCNC(=O)c1ccccc1)N/N=C/c1ccc([N+](=O)[O-])cc1	2.5
COc1cc(OC)cc(C(=O)NCCCn2ccnc2)c1	18.8
Cc1ccc(OCc2nnc(N)s2)cc1	17
Cc1cccc(NC(=O)C2NC(=O)CC2c2ccccc2)c1C (centres unmarked)	7.2
CCOC(=O)C1(Cc2ccccc2)CCN(Cc2csc(C(C)=O)c2)CC1	7
CC(NC(=O)C1CCCN1S(=O)(=O)c1ccc2c(c1)n(C)c(=O)c(=O)n2C)c1ccccc1 (centres unmarked)	13.8
O=C(COC(=O)c1cc[n+]([O-])cc1)Nc1ccc(Cl)cc1C(F)(F)F	19.1
CC(=O)/C(C(=N)N1CCN(c2cccc(Cl)c2)CC1)=C(\C)O	4.02
O=S(=O)(c1cccs1)N1CN(C2CCCC2)c2nc3ccccc3nc21	5.99
COc1ccc(F)c(CN2CCN(CCc3ccccc3)C(CCO)C2)c1 (centres unmarked)	4.05
CCC(C)N(C(=O)c1csnn1)C(C(=O)NCc1ccc(F)cc1)c1ccco1 (centres unmarked)	-10.4
Cc1ccc(NC(=O)CN2CCOCC2)cc1C	12.7
CSc1nc2ccc(N3C(=O)C4CCCCC4C3=O)cc2s1 (centres unmarked)	-1.65
CON/C=C(\C=Nc1ccccc1)c1ncc(C(F)(F)F)cc1Cl	8.6
COc1ccc(C2NC(=O)NC(C)=C2C(=O)OC2CCCC(C)C2)cc1 (centres unmarked)	9.22
O=C(NCCOc1ccccc1)C1CCCN1C(=O)c1cccs1 (centres unmarked)	12.8
O=C(NCC1CCCO1)c1ccc(COc2ccccc2)o1 (centres unmarked)	-8.81

Structure (SMILES)	hERG current change (%, negative = inhibition) at 1uM [%]
CS(=O)(=O)NCc1csc(-c2ccccc2)n1	8.19
CCOc1ccc(NC(=O)c2ccccc2CO)cc1	11.2
C/C(=N\NC(=O)COc1ccc(C)cc1C(C)C)c1ccc(-n2ccnc2)cc1	4.88
CCC(C)NC(=O)c1ccccc1NC(=O)CN(c1cc(C)ccc1OC)S(C)(=O)=O (centres unmarked)	5.63
Clc1cccc(N2CCNCC2)n1	11.5
COc1ccc(Nc2nc(N)nc(CSC(=S)N3CCN(c4ccccc4)CC3)n2)cc1	8.12
COc1ccc(CCN=C(C)C2=C(O)C(c3ccccc3)OC2=O)cc1OC (centres unmarked)	2.95
NC(=O)CSc1nnc(CNc2ccc(F)cc2)n1CC1CCCO1 (centres unmarked)	-1.77
CC(C)N(C#N)c1nc(N2CCOCC2)nc(N2CCOCC2)n1	0.297
CCCCn1c(/N=C/c2c[nH]c3ccccc23)nc2ccccc21	11.4
O=C(c1ccc(NC2=NC3CS(=O)(=O)CC3S2)cc1)N1CCN(Cc2ccccc2)CC1 (centres unmarked)	3.9
CC1(C)CC(=O)C2=C(C1)Nc1ccccc1NC2c1cccc(F)c1 (centres unmarked)	9.12
COCCN(CCOC)S(=O)(=O)c1ccc(C(=O)Nc2nc(C)c(C(C)=O)s2)cc1	13.7
CCOC(=O)Cc1csc(SCC(=O)Nc2cccc(Cl)c2)n1	11.3
Cc1cc(N2CCOCC2)ccc1/C=C1\NC(=O)N(CC(=O)Nc2ccc(F)cc2)C1=O	3.31
O=C(CCCN1C(=O)/C(=C/c2cccs2)SC1=S)NNC(=O)c1ccncc1	0.723
CC(=O)Oc1ccc2nc(CN3C(=O)c4ccc([N+](=O)[O-])cc4C3=O)oc(=O)c2c1	6.12
O=C(OC(C(=O)NCc1ccco1)C(OC(=O)c1ccccc1)C(=O)NCc1ccco1)c1ccccc1 (centres unmarked)	7.22
Cc1cc(NC(=O)CC#N)n(-c2nc3ccccc3[nH]2)n1	4.24

Structure (SMILES)	hERG current change (%, negative = inhibition) at 1uM [%]
O=C(NCC1OCCc2ccccc21)c1ccco1 (centres unmarked)	2.83
FC(F)(F)c1nnc(-c2ccccc2)nc1Oc1ccccc1	14.5
COc1ccc([N+](=O)[O-])cc1NS(=O)(=O)c1ccc(Cl)c(C(=O)Nc2sc3c(c2C#N)CCCCC3)c1	17.4
CCCc1cc(=O)[nH]c(SCC(=O)N(CC)C2CCS(=O)(=O)C2)n1 (centres unmarked)	15.5
CCSc1nc(N2CCOCC2)c2ccccc2n1	11.7
COc1ccc(-c2csc(N3CCN(C(=O)c4ccccc4)CC3)n2)cc1	13.5
Cc1c(Cl)c(-c2n[nH]c(=S)n2-c2ccc(F)cc2)nn1C	11.5
COc1ccccc1OCc1ccc(C(=O)c2ccccc2)cc1	15.9
O=C(Nc1ncccn1)c1cc(-c2cccc(Br)c2)nc2ccccc12	11.1
O=C(CSc1nccn1-c1ncc(C(F)(F)F)cc1Cl)c1ccc(Br)cc1	3.16
CCOc1ccccc1NC(=O)c1oc2ccccc2c1NC(=O)C1CCCO1 (centres unmarked)	0.437
COc1cc(CNS(=O)(=O)c2ccc3c(c2)CC(C)N3C(C)=O)cc(OC)c1OC (centres unmarked)	24.4
COc1ccc(NC(=S)NNC(=O)c2cccs2)cc1	12.3
CCc1ccccc1NC(=O)CSc1nc2ccccc2nc1N1CCOCC1	5.43
COc1ccc(NC(=O)c2cccc(-n3cnnn3)c2)cc1	5.08
COc1ccc(-c2nnc3ccc(SCC(N)=O)nn23)cc1OC	7.51
Cc1cc(C)nc(SCc2nnc(SCC(=O)Nc3nc(-c4ccccc4)cs3)n2C)n1	5.48
COc1ccc2oc(-c3ccc(NC(=O)c4ccc(N5CCOCC5)c([N+](=O)[O-])c4)cc3)nc2c1	14.8
